Assay results taken from PubChem BioAssay AID1240 (Sanford-Burnham Center for Chemical Genomics, 2008).
Hit rate of the full screen: of about 50,000 compounds, about 800 (1.6%) showed an effect of 50% or more. The list shows a part of the results.

target: Bcl-2-like protein 10 (Homo sapiens) (UniProt Q9HD36); experiment: TR3 peptide-Bcl-B binding displacers, biochemical primary FP assay, phenotype converters (AID 1240); settings: GST-Bcl-B / FITC-TR3 peptide fluorescence polarization; stronger effect = higher value; compound at 3.75 mg/L;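 also: 0% = Bcl-B with tracer peptide and DMSO and 100% = tracer peptide lacking Bcl-B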
Sequence of UniProt Q9HD36 (Q9HD36 whole entry, looked up): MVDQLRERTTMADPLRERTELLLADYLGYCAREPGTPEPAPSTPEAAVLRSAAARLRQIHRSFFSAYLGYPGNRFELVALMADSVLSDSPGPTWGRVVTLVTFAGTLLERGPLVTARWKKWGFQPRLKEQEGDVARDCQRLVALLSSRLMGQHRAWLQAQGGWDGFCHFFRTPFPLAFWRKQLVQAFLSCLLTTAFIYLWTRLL

Structure (SMILES)	displacement
C(=NCCCN1CCOCC1)c1c[nH]c2ccccc12	2.6%
COc1ccccc1-n1c(/C=C/c2cccnc2)nc2ccccc2c1=O	-2.3%
CC(C)C12CN3CCN(CC(C3)/C1=N\O)C2	-2.3%
O=C(COc1ccc2ccccc2c1)N1CCN(Cc2cccc(Cl)c2)CC1	6.9%
Cc1cc(Cl)ccc1NC1=NCC(C)S1 (configuration not stated)	-3.4%
O=C(Nc1ccc(Br)cc1C(=O)c1ccccc1)c1ccc(F)cc1	8.4%
CCOP(=S)(OCC)SCC(=O)NC(C)(CC)C(=O)O (configuration not stated)	13.9%
N/C(=N\[N+](=O)[O-])N1CCN(C(=O)c2ccco2)CC1	1.2%
CN1C2CCC1CC(=NOC(=O)c1ccc(F)cc1)C2	-5.4%
Cc1cc(C=C2C(=O)NC(=O)NC2=O)c(C)n1-c1cccnc1	6.3%
O=c1n(Cc2ccccc2)c2ccccc2n1CC1CS1 (configuration not stated)	6.5%
CCN1CCN(C(=O)COc2ccc(C34CC5CC(CC(C5)C3)C4)cc2)CC1	-11.9%
N#CC(C#N)=Cc1ccc(Sc2ccccc2)o1	-8.9%
COc1ccc2[nH]cc(CCN)c2c1	12.9%
O=C(CNC(=O)OCc1ccccc1)NCC(=O)Nc1ccc(Br)cc1C(=O)c1ccccc1	11.8%
Clc1cccc(CNCCc2ccc3c(c2)OCO3)c1	-14.3%
O=C1Nc2ccc(Br)cc2C(c2ccccc2Cl)=NC1O (configuration not stated)	13.3%
O=C(O)Cn1cc(/C=C2\C(=O)NC(=O)N(c3ccc(Cl)cc3)C2=O)c2ccccc21	-16.9%
COc1ccccc1-n1c(/C=C/c2c[nH]c3ccccc23)nc2ccccc2c1=O	-3.8%
COc1ccc(/C=C2\CC3C4CC=C5CC(O)CCC5(C)C4CCC3(C)C2=O)cc1 (configuration not stated)	5.1%
O=[N+]([O-])c1ccc(CNCCc2cccc(F)c2)cc1	2.2%
O=P(Oc1ccccc1)(Oc1ccccc1)C(NCc1ccccc1)c1ccccc1 (configuration not stated)	5.7%
CC(Nc1ccc([N+](=O)[O-])c2cccnc12)C12CC3CC(CC(C3)C1)C2 (configuration not stated)	0%
COc1ccc(CNCCc2ccc3c(c2)OCO3)c(OC)c1C	15.1%

Structure (SMILES)	displacement
COC(=O)C1C2C(=O)N(c3ccc([N+](=O)[O-])cc3)C(=O)C12c1ccc(C)cc1 (configuration not stated)	-32.2%
CCSc1nc2ccccc2c(=O)n1-c1cccc(C)c1	-5.6%
CCCCCCCOC(=O)CC(CN)c1ccccc1 (configuration not stated)	11.1%
O=Cc1cn(Cc2ccc(Cl)c(Cl)c2)c2ccccc12	9.8%
CN1C(=O)NC(=O)/C(=C/c2ccc(-c3cccc(C(=O)O)c3)o2)C1=O	-9.5%
COc1ccc(C=C(C#N)C#N)cc1OC	6%
COc1ccc(CN2CCN(Cc3ccc(SC)cc3)CC2)cc1	8.7%
CCOP(=O)(OCC)C1(O)C(=O)Nc2ccc(Br)cc21 (configuration not stated)	7.7%
Cc1cc(OCc2ccc(Cl)cc2)c2c3c(c(=O)oc2c1)CCC3	10.5%
Cc1cccc(C)c1N1CCN(c2c(C)cccc2C)CC1	5.9%
CCOC(=O)c1c(C)n(CC(O)CN2CCOCC2)c2cc(Br)c(OC)cc12 (configuration not stated)	-9.8%
COc1ccc(CCNCc2ccc(Cl)cc2)cc1OC	-32.4%
Cc1cccc(-n2c(=S)[nH]c3ccccc3c2=O)c1	-6.2%
CN(C)c1ccc(/C=C2\CC3C4CC=C5CC(O)CCC5(C)C4CCC3(C)C2=O)cc1 (configuration not stated)	3.2%
Clc1cccc(CNCCc2c[nH]c3ccccc23)c1	-13.9%
O=C(COc1ccccc1[N+](=O)[O-])Nc1ccc(Cl)cc1C(=O)c1ccccc1	2.8%
CN(C)c1ccc(/C=C2\C(=O)NC(=S)N(c3cccc4ccccc34)C2=O)cc1	27.9%
Cc1ccc(N2C(=O)CC(=O)NC2=S)cc1	5.6%
O=C1Nc2ccc(Br)cc2C1=Cc1nc2ccccc2c(=O)n1-c1ccc(O)cc1	-1%
O=[N+]([O-])c1cccc(CN2CCN(Cc3cccc(Cl)c3)CC2)c1	-0.3%
Cc1ccc(-n2c(C)cc(/C=C3/C(=O)NC(=O)N(C)C3=O)c2C)cc1	-10.4%
Cc1cc(-c2ccc(C=C3C(=O)NC(=S)NC3=O)o2)c(C)c([N+](=O)[O-])c1	15%
COC(=O)COc1ccc(C=C2C(=O)NC(=O)NC2=O)cc1	3.3%
Cc1cccc(C(=O)NC(Oc2ccccc2[N+](=O)[O-])C(Cl)(Cl)Cl)c1 (configuration not stated)	6.3%

Structure (SMILES)	displacement
CCc1ccc(CNCCc2ccc(OC)cc2)cc1	-21.3%
CN1C(=O)C(=Cc2ccc(N3CCCC3)c([N+](=O)[O-])c2)C(=O)N(C)C1=O	29.4%
CC(C)(C)c1ccc(OCCOc2ccccc2C=C2C(=O)NC(=O)NC2=O)cc1	4.6%
Cc1cc(OCC(=O)C(C)(C)C)c2c3c(c(=O)oc2c1)CCC3	10.3%
CN1C(=O)C(=Cc2ccc(C(=O)O)cc2)C(=O)N(C)C1=O	-15.9%
Cc1ccc(C=C2C(=O)NC(=O)NC2=O)o1	8.8%
Oc1ccc(Br)cc1CN1CCN(Cc2ccc(Cl)cc2)CC1	1.4%
Oc1ccc(Br)cc1CN1CCN(Cc2ccc(F)cc2)CC1	7.7%
O=c1c2ccccc2nc(/C=C/c2ccc([N+](=O)[O-])cc2)n1-c1cccc(O)c1	0%
CC(Cc1ccccc1)NC(=O)/C=C/c1ccco1 (configuration not stated)	3.1%
O=c1c2ccccc2nc(-c2ccccn2)n1-c1ccc(Cl)cc1	3.2%
COc1ccccc1-n1c(-c2cccs2)nc2ccccc2c1=O	-4.7%
CC(C)CCn1c(=O)c(C(=O)Nc2ccc(I)cc2)c(O)c2ccccc21	7.1%
Cc1cccc(CN2CCN(Cc3ccc(F)cc3)CC2)c1	5.2%
CCOc1ccc(CNCCc2ccc(Cl)cc2)cc1	-9.7%
COC(=O)c1[nH]cnc1C(=O)Nc1ccc(Br)cc1C(=O)c1ccccc1	16.4%
COc1ccc(/C=C/c2nc3ccccc3c(=O)n2-c2ccc(O)cc2)cc1	9%
Cc1cc(C=C2C(=O)NC(=S)NC2=O)c(C)n1-c1ccc(F)cc1	3.8%
CCCCSc1nc2ccccc2c(=O)n1-c1cccc(C)c1	-6.2%
O=[N+]([O-])c1ccc(CNCCc2ccc(Cl)cc2)cc1	8.6%
Cc1ccccc1OP1(=O)OC(=O)c2cc(Cl)ccc2O1 (configuration not stated)	5.6%
CCOc1ccc(N2C(=O)/C(=C/c3cc(Cl)ccc3O)C(=O)NC2=S)cc1	0.4%
c1cc2c(cc1CCNC1C3CC4CC(C3)CC1C4)OCO2 (configuration not stated)	-15.9%
O=[N+]([O-])c1cc2c(cc1CNCCc1ccc(Cl)cc1Cl)OCO2	10.8%
